Source: the supplement of paper PMC11417369
The other results are listed elsewhere or left out.

system: PfHDP1 homeodomain (GST-tagged); test: gcPBM binding intensity (ln(normalized median fluorescence intensity)); higher = stronger DNA binding
Procedure, shortened: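 Binding intensity is the highest Masliner-normalised natural-log median intensity over replicate spots in either probe orientation. To obtain it, GST-tagged P. falciparum DNA-binding domains made in E. coli were incubated for 1 h on an Agilent 4 × 180k array of primer-extended double-stranded 36-bp intergenic genomic probes plus negative controls. Detection used Alexa488 anti-GST antibody with scanning at 488 nm.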

| Sequence | gcPBM binding intensity (ln) |
| --- | --- |
| AAAAAAAAAAAAAAAACACACACATACACCCAAAAA [CACACA_site7910] | 6.96 |
| TTACATATGGTTAGTAGTACATATATAAATGTAAAT [XGTACX_site7206] | 6.31 |
| AAAATACACGCATACACACACACACCCACCCATATA [CACACA_site639] | 7.21 |
| TTTATAAAAATATACACACATACAAATATGCATATA [CACACA_site712] | 6.92 |
| GAAAAAAGGAAATAAAGAAAAAAAAAAATGAAATAT [XGTACX_negctrl_site318] | 6.22 |
| GTGTACATAGGTATAGCACACACAAATGTAGGTATT [CACACA_site9339] | 6.52 |
| ATTATAATTATTTTGTTGCACTATTTTTGTAGGCCA [GTGCAC_site9734] | 8.6 |
| GAATACACCACGCACACACACTTGAGAAAAAATAAA [CACACA_site7747] | 7.44 |
| TCTATAAAGTTCCATACATGCGCCATCATTTATATT [TGCATGCA_site195] | 6.98 |
| CTGTTTAAAATATAAACACACATTGTTTGCTTTAGA [CACACA_site1301] | 6.4 |
| ATTTTTTTACTGCAACCATATTTTTCCCTTTTATTC [CACACA_negctrl_site1282] | 7.25 |
| TGTATATATATATAAAGTACATATAATATATATTTG [XGTACX_site5411] | 6.27 |
| AAATAAAATTATAACTGTACGTTGTATGAAATAATG [XGTACX_site5462] | 6.69 |
| TTGCCCATTTCATTAACACACAAATGTTTATATTCT [CACACA_site4569] | 6.94 |
| AATACCCATTTTAGTACACACTTAAAAAATTATTTT [CACACA_site5611] | 6.72 |
| TTAACTCAAGAGTGTACACATATATATATATATATA [CACACA_site4334] | 9.45 |
| GTATAATATGAACACACACACACACGCAAAAAAAAA [CACACA_site7036] | 6.99 |
| TATATTTTTTAAAAAGCATGCAAAAAATAATGATCA [TGCATGCA_site48] | 7.1 |
| ACGTTGAAGAAATACACATGCATATTCTATATATAT [TGCATGCA_site76] | 7.27 |

| Sequence | gcPBM binding intensity (ln) |
| --- | --- |
| TCATTTTATTTTTTCACACACACATATATATATATA [CACACA_site3333] | 9.31 |
| CTCTTATGCTAGGAAGTGCAATAGTATGGGTACCAC | 8.6 |
| TAATATATATAAACATGTACAAATCAAAAACAAAAG [XGTACX_site4076] | 7.52 |
| ATTTTAGATGAAAAAGCACACAACATATATATATAT [CACACA_site2295] | 8.96 |
| ATTCTTTTTTTTTGGAAATGTATTTTTATGTTTTGT [TGCATGCA_negctrl_site426] | 6.56 |
| ACAAGAAAATATATTTGTACATATATAATTTTATTT [XGTACX_site548] | 6.43 |
| AAAGAAATACAATGATGTACATTTAAAAAAAATTAA [XGTACX_site4324] | 6.43 |
| TTTTTAAAAAAGTAAAGTACAAAAAAAAGGAATATC [XGTACX_site588] | 7.25 |
| ATTAGTAAGAATCATTGTACATTATAATATGTGGTA [XGTACX_site1341] | 6.53 |
| TGCTTCCTTAGGAATGTACACACATATATAATATGT [CACACA_site8048] | 6.48 |
| ATATATTTATATTTATGTACATATCTTTATTTACGT [XGTACX_site6800] | 6.6 |
| ATATATATATCGATCTGTACATATATTTATAGACAT [XGTACX_site4236] | 8.25 |
| ATTTATTTTTATATAACACACAAAGTATAATATAAC [CACACA_site3582] | 6.41 |
| TGTAAAACTGAAAAGGGTACATATAAATATATATAT [XGTACX_site69] | 8.02 |
| ACTATATATTTAATATGTACACATATTTCTGTCGAT [XGTACX_site6878] | 6.86 |
| TTCCTAAGAATAATCAGTACACATAAAAAGAACATA [XGTACX_site7861] | 6.63 |
| GCATTATTTACCACAACACACAAATATTTACCAATC [CACACA_site2669] | 7.16 |
| TAATTTCATCATATTTGTTCCTTCTCAAAATTTTTT [CACACA_negctrl_site217] | 6.44 |
| ATAATTATCATAGGATGTACATATTTATTTTGTATA [XGTACX_site7797] | 6.24 |

| Sequence | gcPBM binding intensity (ln) |
| --- | --- |
| ATATGTTAAATTATTCGTACGTAAAAAAAAATGGAT [XGTACX_site3465] | 7.09 |
| ACTCAAACCTTTAGAGTGCAAAAAAAAAAAAAAAAA [GTGCAC_site9952] | 7.61 |
| TTGTAAAAATTAATACATATATATATATATATATAT [CACACA_negctrl_site6] | 9.37 |
| TTAAATAAAAAAATAACACACATATAAATATATATG [CACACA_site3175] | 6.25 |
| TTACATATTTTTTAACGTACATAAATATATATGTAT [XGTACX_site8406] | 6.15 |
| CTCTTTTTTTGCAAAAGTACAAATGGGGATATATTT [XGTACX_site5813] | 8.35 |
| AAAGAAATAAGGTGCACACATATACAGATATATATA [CACACA_site4399] | 9.82 |
| ATATATTTGATTTACACACTTACAATGTATATAAAT [CACACA_site2993] | 6.88 |
| TTTATAAACAAATGAACACACAAACATATATATATA [CACACA_site5713] | 8.87 |
| TTTTTTCATTAGAAAACATGCAAATGTTTTTCACTT [TGCATGCA_site127] | 6.46 |
| CTATTATAATATTTTACACACCATGTAAGATATATA [CACACA_site7492] | 6.67 |
| TTTATTTTATCATTTGCACACGCACCCAGACATAAA [CACACA_site4347] | 10.6 |
| TCTATTTTCTTATGAATGCACTAATTTATAAAACGT | 8.44 |
| TAACTAAGGAATAATACACACAGAAATATAGATTTA [CACACA_site6293] | 6.5 |
| CAACAAAAATTATTTACACACAAAAGGCAAGGAAAT [CACACA_site1971] | 7.11 |
| AGATTTATACAAATATGTACACACTAAATATATATT [XGTACX_site864] | 6.61 |
| AAAAAGGGTATTATTACACACACGTAAATATTAATA [CACACA_site101] | 6.48 |
| ATTAGGATATATTAAAGTACTAATATAATACATTTT [XGTACX_site7386] | 5.88 |
| TATTCATTTATAAGCTGTACACATTAATTTGAGCTA [XGTACX_site3616] | 6.33 |
